# In article PMC4336329 (PLoS ONE, 2015):
# About 14,000 (4.5%) of roughly 310,000 compounds showed an effect of 50% or more. Effects have a minus sign here. This is one part of the list.
# Target: human ether-à-go-go-related gene (hERG) potassium channel (human, UniProt Q12809)
# Assay: primary screen, population patch clamp on CHO cells stably expressing hERG
# 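Further: peak tail current of the secondary pulse compared with the same well before compound.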
# Chain of human ether-à-go-go-related gene (hERG) potassium channel (Q12809 whole entry, looked up): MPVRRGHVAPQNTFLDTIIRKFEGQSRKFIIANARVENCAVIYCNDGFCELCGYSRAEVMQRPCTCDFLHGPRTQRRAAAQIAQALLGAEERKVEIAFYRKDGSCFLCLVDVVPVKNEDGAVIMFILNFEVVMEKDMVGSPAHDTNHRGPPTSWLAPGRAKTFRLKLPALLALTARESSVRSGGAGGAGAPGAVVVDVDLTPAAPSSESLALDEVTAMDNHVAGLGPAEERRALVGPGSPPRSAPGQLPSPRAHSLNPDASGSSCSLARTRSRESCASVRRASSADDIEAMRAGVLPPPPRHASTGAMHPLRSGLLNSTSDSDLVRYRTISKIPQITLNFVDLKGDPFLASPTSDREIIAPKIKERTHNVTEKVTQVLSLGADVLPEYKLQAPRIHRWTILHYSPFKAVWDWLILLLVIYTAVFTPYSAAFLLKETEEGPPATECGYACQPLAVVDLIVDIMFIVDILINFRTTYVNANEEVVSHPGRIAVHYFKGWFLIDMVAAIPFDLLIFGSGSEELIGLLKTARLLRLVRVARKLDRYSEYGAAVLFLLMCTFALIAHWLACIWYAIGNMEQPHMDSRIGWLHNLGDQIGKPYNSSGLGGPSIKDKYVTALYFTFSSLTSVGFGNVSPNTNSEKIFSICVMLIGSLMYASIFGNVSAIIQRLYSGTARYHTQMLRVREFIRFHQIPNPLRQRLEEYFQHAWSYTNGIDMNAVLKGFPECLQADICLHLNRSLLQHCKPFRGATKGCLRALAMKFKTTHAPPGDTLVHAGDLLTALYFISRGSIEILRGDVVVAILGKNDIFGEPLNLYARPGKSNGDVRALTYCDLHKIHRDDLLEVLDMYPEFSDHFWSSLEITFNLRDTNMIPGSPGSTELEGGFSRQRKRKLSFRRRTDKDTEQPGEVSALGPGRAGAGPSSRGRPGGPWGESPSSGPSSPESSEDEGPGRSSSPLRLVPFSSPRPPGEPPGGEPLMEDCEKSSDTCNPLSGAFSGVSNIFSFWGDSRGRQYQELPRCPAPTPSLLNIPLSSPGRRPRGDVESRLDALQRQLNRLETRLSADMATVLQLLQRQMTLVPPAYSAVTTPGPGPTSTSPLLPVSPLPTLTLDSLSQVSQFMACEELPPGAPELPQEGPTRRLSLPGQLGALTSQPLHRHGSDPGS
row,Compound,"hERG current change (%, negative = inhibition) at 10uM"
1,C/C(CC(=O)NCc1ccco1)=N\NC(=O)COc1ccc(Cl)cc1Cl,-65.6%
2,CCN(/N=C/c1ccccc1)c1cc(=O)n(C)c(=O)[nH]1,-8.13%
3,C[C@@H]1NC(=O)c2cc([N+](=O)[O-])cc(I)c2OCC[C@@H](C(N)=O)NC(=O)[C@H](CCCCN)NC1=O,16.4%
4,COc1ccc(-c2cc([C@H]3[C@@H]4C=CCC[C@@]4(C)C(=O)N3Cc3ccccc3)ccc2F)cc1,8.38%
5,Cc1cccc(NS(=O)(=O)c2cc(OCC(N)=O)c(C)cc2Cl)c1,-7.38%
6,Cc1cc(C)c(C(=O)N2CCCC(Nc3ccc(C)c(C)c3)C2)o1 (stereo not drawn),5.21%
7,Cc1cc(C)nc(N/N=C/c2ccccc2OCc2ccc(Cl)cc2)n1,-3.39%
8,Cc1cc(C)cc(NC(=O)Nc2ccc(N3CCCCC3)cc2)c1,19.5%
9,O=C(CSc1nc2ccc(NC(=O)C3CCCCC3)cc2s1)NCC1CCCO1 (stereo not drawn),2.42%
10,COCCNc1c([N+](=O)[O-])c(=O)n(-c2ccccc2)c2ccccc12,-25.2%
11,CN1CC=C2C(C#N)=C(N)C(C#N)(C#N)C(c3cccc(Cl)c3Cl)C2C1 (stereo not drawn),-7.56%
12,Cc1cc(NC(=O)C(C)SCC(=O)NCc2ccc(F)cc2)no1 (stereo not drawn),-0.245%
13,COc1cc(/C(C)=N\NC(N)=S)cc(OC)c1OC,-17.5%
14,CCOc1cc2[nH]c(=O)n(CCCCCC(=O)NCc3ccco3)c(=O)c2cc1OCC,0.762%
15,CC(OC(=O)C1CSC2(C)CCC(=O)N12)C(=O)Nc1ccc(F)cc1 (stereo not drawn),4.87%
16,CCCCc1ccc(NC(=O)Nc2c(C)n(C)n(-c3ccccc3)c2=O)cc1,2.05%
17,O=C(NC12CC3CC(CC(C3)C1)C2)C1CCCN1C(=O)NC1CCCCC1 (stereo not drawn),13%
18,Cn1c(-c2ccc(F)cc2)cc2onc(-c3ccccc3Cl)c2c1=O,2.89%
19,COc1ccc(-c2oc3c4c(cc(OC)c3c(=O)c2CC=C(C)C)OC(C)(C)C=C4)c(OC)c1,12.6%
20,Cc1cc(NC(=O)CCC(=O)N(c2ccccc2)C2(C(=O)NC3CCCCC3)CCCC2)no1,-0.368%
21,O=C1C=CC(=C(c2ccc(O)cc2)c2ccc(O)cc2)C=C1,4.78%
22,CCCC1C(C(=O)OCC)=C(C)NC(C)=C1C(=O)OCC,10.7%
23,Cc1cccc(NC(=O)CN(CC2CCCO2)C(=O)c2oc3ccc(F)cc3c2C)c1C (stereo not drawn),-34.7%
24,COCCCNCCCCOc1ccccc1-c1ccccc1.O=C(O)C(=O)O,-43.4%
25,CS(=O)(=O)c1ccc(C(=O)OCC(=O)c2ccc(Cl)s2)cc1,-6.47%
26,O=C(Cc1c(Cl)cccc1Cl)Nc1cccnc1,17.7%
27,O=C(CCCC(=O)c1ccccc1)NCCc1ccccc1,7.95%

row,Compound,"hERG current change (%, negative = inhibition) at 10uM"
1,C/C(=N\NC(=O)C1CCCC1)c1ccc(Cl)cc1Cl,12.6%
2,O=C1c2ccccc2C(=O)N1CC(=O)N1c2ccccc2CCc2ccccc21,6.3%
3,CC1CCC(CN2CCN=C2N(C)C)CC1 (stereo not drawn),-1.65%
4,Cc1nc2ccccc2cc1C(=O)N/N=C/c1cccc([N+](=O)[O-])c1,-30.9%
5,COc1ccc(/C(O)=C2\C(=O)C(=O)N(CCN(C)C)C2c2cccc(OC)c2OC)cc1Cl (stereo not drawn),3.53%
6,NC(=O)/C(=C\c1ccccc1)NC(=O)/C=C/c1ccccc1,16.8%
7,COc1ccccc1OCC(=O)Nc1cccc(-c2nc3ccccc3o2)c1,0.23%
8,Cc1c(NC(=O)/C(=C\c2ccccc2)NC(=O)c2ccccc2)c(=O)n(-c2ccccc2)n1C,21.4%
9,CC(=O)Nc1ccc2nc(NC(=O)c3ccc([N+](=O)[O-])o3)sc2c1,20.9%
10,COc1cc(OC)c(CN2CCN(c3ccc(F)cc3)CC2)cc1Br,-70.3%
11,COc1ccc(Nc2ccc(C(=O)O)cc2[N+](=O)[O-])cc1,4.18%
12,CC(=O)NC(Cc1ccc(O)cc1)C(=O)NN (stereo not drawn),28.2%
13,Cc1cc(C)nc(SCC(=O)Nc2ccc(S(=O)(=O)Nc3cc(C)on3)cc2)n1,21.1%
14,Cc1ccc(SCC(=O)Nc2ccc(C(=O)Nc3ccc(O)cc3)cc2)cc1,10.1%
15,O=C(O)Cn1nnc(-c2ccc(OCc3ccccc3)cc2)n1,23.9%
16,CCc1ccc(N2CC(C(=O)NNC(=O)c3ccc(F)cc3)CC2=O)cc1 (stereo not drawn),-14.5%
17,COC(=O)c1ccc2nc(C3CCCCC3)c3c(c2c1)CCC3,7.96%
18,CC(=O)NC(CCS(C)(=O)=O)C(=O)Nc1ccc(Cl)c(Cl)c1 (stereo not drawn),0.279%
19,CCOC(=O)CN1C(=O)N[C@@H](c2cccc(C(F)(F)F)c2)[C@H](C(C)=O)[C@H]1C,-0.00062%
20,O=C(COC(=O)Cc1ccccc1[N+](=O)[O-])NNC(=O)c1ccc([N+](=O)[O-])cc1,-21.9%
21,CCOc1ccc(C2C(C#N)=C(N)N3C(=C2C#N)Sc2ccccc23)cc1 (stereo not drawn),9.5%
22,Cc1ccc(-c2c(C#N)c(N)n(-c3ccccc3)c(=O)c2C#N)cc1,20.3%
23,Brc1ccc(CSc2nnc(Cc3c[nH]c4ccccc34)o2)cc1,-22.2%
24,Cc1ccnn1-c1ccc(C(=O)N2CCCN(S(=O)(=O)c3ccc(F)cc3)CC2)cc1,-69.7%
25,Cc1c(NC(=O)CSc2nc3ccccc3s2)c(=O)n(-c2ccccc2)n1C,-20.7%
26,Cn1cc(/C=C2\C(=O)NC(=O)N(c3ccccc3)C2=O)c2ccccc21,5.33%
27,CN(C(=O)COC(=O)C1CCN(S(=O)(=O)c2c(Cl)cccc2Cl)CC1)C1CCCCC1,-31.9%
